# Laboratory results as given in PubChem BioAssay AID504374 (National Center for Advancing Translational Sciences (NCATS), 2011).
# Among all 1,500 compounds or so, about 100 (6.7%) were called active. Not shown: some 7% with an inconclusive outcome. Calls follow the shape of the dose curve; as a rule, active = well fitted inhibition curve with a large enough effect; inconclusive = small, poorly fitted or top-dose-only effect, or effect the other way; inactive = flat fitted curve, though single readings scatter. This is one part of the list.
# Target: Runt-related transcription factor 1 (Homo sapiens) + Core-binding factor subunit beta (Homo sapiens) (UniProt Q01196+Q13951)
# Experiment: qHTS Assay for Compounds Blocking the Interaction Between CBF-beta and RUNX1 for the Treatment of Acute Myeloid Leukemia: Hit Validation; also: nearly all actives have a fitted effect of over 60% in size
# Conditions: AlphaScreen CBFb-His/RUNX1-biotin binding; series mostly up to 59.8 µM; activity, negative = inhibition: at the top concentration
# Outline: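 Compounds were added to a premixed CBF-beta-His/RUNX1-biotin complex (30 nM each, 20 min) for 15 min. Nickel and streptavidin AlphaScreen beads followed for 90 min at room temperature, with emission at 440 nm […].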
# % is scaled to controls: 0 for no effect and ±100 for the full control effect; potency is read from the fitted curve at half-maximal effect.
# Sequence of UniProt Q01196 (Q01196 whole entry, looked up): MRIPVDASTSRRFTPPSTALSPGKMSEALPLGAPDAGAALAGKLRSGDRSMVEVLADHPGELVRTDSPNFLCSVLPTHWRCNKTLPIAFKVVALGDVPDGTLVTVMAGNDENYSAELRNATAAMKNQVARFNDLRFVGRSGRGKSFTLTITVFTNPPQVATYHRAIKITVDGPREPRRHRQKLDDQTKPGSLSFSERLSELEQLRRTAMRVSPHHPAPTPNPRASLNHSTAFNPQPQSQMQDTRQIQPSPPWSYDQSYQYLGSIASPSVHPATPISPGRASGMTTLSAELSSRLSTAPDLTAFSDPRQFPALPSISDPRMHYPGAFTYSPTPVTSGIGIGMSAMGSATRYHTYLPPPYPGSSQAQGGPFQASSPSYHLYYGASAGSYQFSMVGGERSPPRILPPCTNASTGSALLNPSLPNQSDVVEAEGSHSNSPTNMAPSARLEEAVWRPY
# Sequence of UniProt Q01196 (Q13951 whole entry, looked up): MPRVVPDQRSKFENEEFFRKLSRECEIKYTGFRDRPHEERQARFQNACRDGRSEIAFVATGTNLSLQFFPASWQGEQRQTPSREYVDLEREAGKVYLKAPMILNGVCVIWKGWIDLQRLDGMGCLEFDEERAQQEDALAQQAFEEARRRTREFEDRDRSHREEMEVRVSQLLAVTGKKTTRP
SMILES,"activity, negative = inhibition",Potency
CCC(=O)Nc1cccc(C(=O)OC)c1,inactive: -8.54%,
COc1ccc(CC(=O)n2[nH]c(=O)ccc2=O)cc1OC,inactive: -9.02%,
O=C1N=C(N2CCc3ccccc3C2)S/C1=C\c1ccc(O)cc1,inactive: -21.5%,
Nc1cc2ccncc2c2ccccc12,inactive: 5.33%,
O=S(=O)(Nc1ccc(C(F)(F)F)cn1)c1ccccc1,inactive: -0.888%,
COC(=O)c1ccc(Cn2nc([N+](=O)[O-])c(Br)c2C)cc1,inactive: -9.01%,
O=C(NCCC1CC1(Cl)Cl)Nc1ccccc1 (centres undefined),inactive: 1.9%,
COc1ccccc1C(=O)N1CCC(N2CCN(c3ccccc3OC)CC2)CC1,inactive: -14.2%,
C/C(O)=C(\C#N)P(=O)(c1ccccc1)c1ccccc1,inactive: 10.4%,
CCOC(=O)N1CCC(NS(=O)(=O)c2ccc(C#N)cc2)CC1,inactive: -5.68%,
Cc1ccc(OCc2ccc(C(=O)NN)o2)c([N+](=O)[O-])c1,inactive: 1.59%,
COc1ccc(/C=C2\CCc3c2nc2ccccc2c3C(=O)O)cc1OC,inactive: -24.1%,
Cc1cc(C)n(-c2cc(C(C)(C)C)nc3c(-c4ccccc4)cnn23)n1,inactive: 2.38%,
CC(C)(C)OC(=O)N[C@@H](Cc1ccccc1)c1nnc(SCC(N)=O)o1,inactive: -5.88%,
O=C(CCC(=O)N1CCN(c2ccc(O)cc2)CC1)c1cccs1,inactive: 4.81%,
O=C(Nc1ccc(F)cc1)OCCOc1ccc(Br)cc1,inactive: 8.93%,
Nc1c(Cl)ncnc1N/N=C/c1ccncc1,inactive: -3.76%,

SMILES,"activity, negative = inhibition",Potency
CN=c1scc(-c2ccccc2F)n1/N=C/c1ccc(O)c(O)c1O,,active: 6.87 µM
NS(=O)(=O)c1ccc(Sc2ccccn2)c([N+](=O)[O-])c1,inactive: 3.17%,
CC1(C)CCSC(/C=C/c2ccccc2)=N1,inactive: 2.11%,
Nc1nc(NCc2ccco2)nc(NCCO)c1[N+](=O)[O-],inactive: -2.4%,
O=S(=O)(Nc1ccc(Cl)cc1)c1ccc2c(c1)CCO2,inactive: -10.5%,
COc1ccc2c(c1)CCN1C2CCN2C(=O)CCC21 (centres undefined),inactive: -1.49%,
C/C(Cc1nnn(-c2cc(C)on2)n1)=N\O,inactive: -0.472%,
CC(=O)NNC(=S)Nc1cccc(F)c1,inactive: -2.31%,
c1ccc(Nc2nnc(-c3cccc4ccccc34)o2)cc1,inactive: -9.74%,
NNC(=O)c1ccc(COc2ccc3ccccc3c2)o1,inactive: -4.05%,
COc1cccc(/C=N/n2nnnc2N)c1,inactive: -2.12%,
COc1ccc(C(=O)COc2ccc(C)cc2NC(C)=O)cc1,inactive: 2.19%,
Cc1ccc(Cn2c(N/N=C/c3ccncc3)nc3c2c(=O)n(C)c(=O)n3C)cc1,inactive: -3.34%,
COc1ccccc1C1=NOC(COc2ccc3c(C)cc(=O)oc3c2)C1 (centres undefined),inactive: -3.77%,
C#CCSc1nc(=O)c2cccnc2n1-c1ccc(C)cc1,inactive: 0.897%,
CCCc1cc(=O)c2ccc(OCC(C)=O)cc2o1,inactive: -1.17%,
COC(CNc1ccc([N+](=O)[O-])c(NCC(OC)OC)c1C#N)OC,inactive: -5.85%,
